Source: PMC4336329 (PLoS ONE, 2015)
The campaign covered roughly 310,000 compounds. About 2,200 (0.71%) showed an effect of 50% or more. Effects have a minus sign here. The list shows a part of the results.

biological target: human ether-à-go-go-related gene (hERG) potassium channel (human, UniProt Q12809); experiment: primary screen, population patch clamp on CHO cells stably expressing hERG
Sequence (Q12809 whole entry, looked up): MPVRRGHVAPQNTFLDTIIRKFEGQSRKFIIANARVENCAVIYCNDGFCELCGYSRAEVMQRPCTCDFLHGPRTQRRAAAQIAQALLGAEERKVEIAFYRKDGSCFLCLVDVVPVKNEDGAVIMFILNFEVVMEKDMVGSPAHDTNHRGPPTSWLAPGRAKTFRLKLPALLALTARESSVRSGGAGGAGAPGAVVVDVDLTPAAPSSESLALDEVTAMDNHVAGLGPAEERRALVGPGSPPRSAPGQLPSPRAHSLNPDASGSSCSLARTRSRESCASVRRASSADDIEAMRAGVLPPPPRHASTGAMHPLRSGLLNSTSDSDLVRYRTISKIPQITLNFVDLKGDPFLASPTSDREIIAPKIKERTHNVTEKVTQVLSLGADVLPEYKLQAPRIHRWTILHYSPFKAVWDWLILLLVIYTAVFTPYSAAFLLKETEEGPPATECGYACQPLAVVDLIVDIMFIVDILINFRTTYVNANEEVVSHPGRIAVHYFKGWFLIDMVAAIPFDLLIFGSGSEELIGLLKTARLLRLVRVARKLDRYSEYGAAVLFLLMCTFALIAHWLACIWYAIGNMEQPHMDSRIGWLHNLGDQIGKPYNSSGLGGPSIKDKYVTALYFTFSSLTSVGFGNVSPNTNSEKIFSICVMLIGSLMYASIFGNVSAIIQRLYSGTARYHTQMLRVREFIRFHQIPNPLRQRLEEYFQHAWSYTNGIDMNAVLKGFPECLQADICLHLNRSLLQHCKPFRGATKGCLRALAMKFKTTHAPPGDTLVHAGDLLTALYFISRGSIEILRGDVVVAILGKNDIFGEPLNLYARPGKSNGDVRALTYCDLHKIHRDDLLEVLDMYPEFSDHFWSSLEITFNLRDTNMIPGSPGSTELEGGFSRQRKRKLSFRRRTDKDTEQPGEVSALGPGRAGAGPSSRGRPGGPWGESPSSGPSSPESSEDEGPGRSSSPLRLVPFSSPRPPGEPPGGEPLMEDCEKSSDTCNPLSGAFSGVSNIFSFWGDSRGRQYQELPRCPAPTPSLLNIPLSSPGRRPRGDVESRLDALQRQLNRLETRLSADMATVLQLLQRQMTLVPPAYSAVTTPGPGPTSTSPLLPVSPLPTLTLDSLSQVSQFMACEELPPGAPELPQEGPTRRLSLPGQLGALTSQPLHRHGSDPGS

Row | SMILES | hERG current change (%, negative = inhibition) at 1uM [%]
1 | COc1ccc(Br)cc1CNC(=O)C1CCN(S(=O)(=O)N2CCC(C)CC2)CC1 | -17.7
2 | O=C(NCC1CCN(Cc2ccc(F)cc2)CC1)Nc1cc(F)ccc1F | -29.7
3 | Cc1ccc(S(=O)(=O)CC(=O)Nc2nc3ccc(S(N)(=O)=O)cc3s2)cc1 | 13.2
4 | Cc1cc[n+]2c3c(cccc13)CCC2.[Cl-] | 14.6
5 | O=C(COC(=O)/C=C/c1cccs1)Nc1nc(-c2cccc(Br)c2)cs1 | 8.52
6 | COc1ccc(-c2oc3c(OC)c(OC)c(OC)c(O)c3c(=O)c2OC)cc1OC | 8.33
7 | CCOC(=O)Cc1csc(NC(=O)Nc2cccc(Cl)c2)n1 | 13.4
8 | CC1CCN(CCc2nc3cc(NC(=O)COc4ccccc4)ccc3n2C)CC1 | -33.9
9 | N#Cc1cccc2cnccc12 | 7.07
10 | c1ccc(Sc2nc(N3CCCCC3)nc(N3CCCCC3)n2)nc1 | -2.33
11 | O=C(Nc1ccc([N+](=O)[O-])cc1)c1cc2ccccc2nc1Cl | 8.25
12 | COc1ccc(C(C)NC(=O)c2ccncc2)cc1OC (stereo not shown) | 2.07
13 | CC(C)C[C@H](NC(=O)C1CCN(S(=O)(=O)c2ccccc2)CC1)C(=O)NCc1ccncc1 | 11.5
14 | COc1ccccc1CNC(=O)COC(=O)Cc1cccc(F)c1 | 3.85
15 | CC(=O)Nc1ccc(NC(=O)CSc2nc3ccccc3o2)cc1 | 11.6
16 | O=C(O)c1ccc(Br)cn1 | 7.76
17 | COc1ccc(CC(=O)Nc2ccc(S(=O)(=O)Nc3ncccn3)cc2)cc1 | 12.8
18 | COc1ccc(CC(=O)OCC(=O)Nc2ccc3c(c2)OCCO3)cc1OC | 18.7
19 | O=C(COC(=O)c1ccccc1NS(=O)(=O)c1cc([N+](=O)[O-])ccc1Cl)c1ccccc1 | 1.79
20 | Cc1ccc(N2CC(C(=O)NCCCn3ccnc3)CC2=O)cc1 (stereo not shown) | 4.23
21 | CN1C(=O)NC(c2ccccc2[N+](=O)[O-])C2=C1CC(C)(C)CC2=O (stereo not shown) | 17.7
22 | COc1ccc(-c2nc(SCC(=O)Nc3nccs3)c(-c3ccc(Cl)cc3)[nH]2)cc1 | 13.1
23 | CN(C)c1ccc(S(=O)(=O)NCC(=O)NCc2ccccc2)cc1[N+](=O)[O-] | 7.92
24 | CCCOc1ccc(C(=O)NNC(=S)NC(C)=O)cc1 | 4.6
25 | O=C(CSc1cccc[n+]1[O-])Nc1cc([N+](=O)[O-])ccc1Cl | 11.1
26 | COC(=O)c1c(NC(=O)c2ccco2)sc2c1CCN(C(C)C)C2.Cl | -13.2

Row | SMILES | hERG current change (%, negative = inhibition) at 1uM [%]
27 | COC(=O)c1ccc(N2NC(=O)/C(=C/c3cc(OC)c(OC)c(OC)c3)C2=O)cc1 | 14.4
28 | CN1CCN(CCNC(=O)c2cc3c(=O)n(C)c4ccccc4c3n2C)CC1 | 13.6
29 | CS(=O)(=O)c1ccc(C(=O)NCCN2C(=O)S/C(=C\c3cccnc3)C2=O)cc1[N+](=O)[O-] | 11.7
30 | Cc1ccc(OCCC(=O)Nc2ccccc2C(=O)N2CCCCC2)cc1 | -3.11
31 | COc1ccc(N2CCN(C(=O)c3cc4c(s3)CCCCC4)CC2)cc1 | 2.23
32 | O=[N+]([O-])c1ccc(-c2nc(NCC3CCCO3)c3ccccc3n2)cc1 (stereo not shown) | 11.5
33 | CCC(=O)Nc1nnc(S(=O)(=O)N(CC)c2ccc(Cl)cc2)s1 | 9.28
34 | Cc1ccc(CN2CCN(C(=O)C3CCCO3)CC2)cc1 (stereo not shown) | 4.12
35 | Clc1c(CSc2nc3ccccc3o2)nc2sccn12 | 7.65
36 | O=C(NCCCN1CCOCC1)C(=O)NCc1ccccc1Cl | 10.3
37 | COc1ccc(CCNC(=O)c2ccc(OCC(=O)N3CCOCC3)c(OC)c2)cc1OC | 6.23
38 | O=C(Nc1ccc2c(c1)OCCO2)C1CCCN1S(=O)(=O)c1cccc2cccnc12 (stereo not shown) | 11.8
39 | COc1ccc(NC(=O)CCN2CCN(S(=O)(=O)c3ccc(Br)cc3)CC2)cc1 | 5.76
40 | Cc1onc(-c2c(Cl)cccc2Cl)c1COC(=O)c1ccc(Cl)cc1 | 16.8
41 | C#CCOCCOCCOCCNc1nc(N2CCN(C(=O)[C@H](C(C)C)n3cc(CCO)nn3)CC2)nc(N2CCN(C(=O)[C@H]([C@@H](C)CC)n3cc(CCCC[NH3+])nn3)CC2)n1.[Cl-] | 15.9
42 | CCCCN1C(=O)NC(=O)C2(Cc3c(nc4ccccn4c3=O)N3CCc4ccccc4C32)C1=O (stereo not shown) | -1.45
43 | CCOc1ccc(C2/C(=C(\O)c3cccc(OC)c3)C(=O)C(=O)N2c2cc(C)on2)cc1OC (stereo not shown) | 11.2
44 | Cc1nc(S(=O)(=O)c2ccc(Cl)cc2)c(N(C)C)o1 | 15.5
45 | CN([C@@H](C(=O)OC(C)(C)C)c1ccccc1)S(=O)(=O)c1cccc(S(=O)(=O)N(C)[C@@H](C(=O)OC(C)(C)C)c2ccccc2)c1 | 9.18
46 | Cc1cc(C(=O)OCC(=O)Nc2cc(S(=O)(=O)N3CCOCC3)ccc2Cl)c(C)o1 | 7.83
47 | Cc1ccc(CN2CCCC(C(=O)c3ccc4c(c3)OCO4)C2)cc1C (stereo not shown) | -27.1
48 | Cc1ccc(CCNC(=O)c2ccc(NC3=NC4CS(=O)(=O)CC4S3)cc2)cc1 (stereo not shown) | 7.77
49 | COC(=O)[C@]1(C)CCC[C@@]2(C)C3CC[C@@]4(C)C[C@]3(CCC21)CC(=O)N4 (stereo partly shown) | 8.02
50 | Cc1ccc(-c2c(C(=O)N/N=C/C3CCCCC3)nnn2-c2nonc2N)cc1 | 14.1
51 | O=C(Nc1cccc(-c2nn[nH]n2)c1)c1csc2c1CCCC2 | 11.5
52 | CCOc1cccc(N2C(=O)CC(N(CCc3ccc(OC)c(OC)c3)C(=O)CC)C2=O)c1 (stereo not shown) | 13.3
